Results on 8 molecules are retold here after article PMC8163987.

Chains of the proteins cited; added tags and fusions are not shown.
UniProt P27434: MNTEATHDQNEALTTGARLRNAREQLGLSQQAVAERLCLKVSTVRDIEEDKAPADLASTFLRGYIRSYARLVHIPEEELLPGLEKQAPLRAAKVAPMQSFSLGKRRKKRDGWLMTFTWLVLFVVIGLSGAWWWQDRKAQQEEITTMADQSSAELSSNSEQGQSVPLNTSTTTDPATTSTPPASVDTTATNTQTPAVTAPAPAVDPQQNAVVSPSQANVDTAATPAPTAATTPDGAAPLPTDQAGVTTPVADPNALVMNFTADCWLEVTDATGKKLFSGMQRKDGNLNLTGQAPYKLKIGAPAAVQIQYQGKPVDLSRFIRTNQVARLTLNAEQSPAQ
UniProt P06136: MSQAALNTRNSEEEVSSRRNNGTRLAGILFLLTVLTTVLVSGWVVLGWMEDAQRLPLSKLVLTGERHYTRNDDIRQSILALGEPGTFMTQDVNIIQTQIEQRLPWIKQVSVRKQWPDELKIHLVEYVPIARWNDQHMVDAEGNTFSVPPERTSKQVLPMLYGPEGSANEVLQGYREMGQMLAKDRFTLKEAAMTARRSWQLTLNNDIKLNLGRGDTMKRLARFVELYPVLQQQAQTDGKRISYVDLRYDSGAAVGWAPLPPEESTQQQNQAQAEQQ

Like-named read-outs stand apart in the source and are kept apart here. These are yes or no findings as the source states them, for the method shown. Some binding calls cover weakened binding; strength is not graded here.

Holding throughout (assay): two-hybrid
In experiment [1] the target is T1, YhcB-v7 (cytoplasmic domain only, lacking the TM region) (E. coli) (UniProt P0ADW3).
T1 sequence: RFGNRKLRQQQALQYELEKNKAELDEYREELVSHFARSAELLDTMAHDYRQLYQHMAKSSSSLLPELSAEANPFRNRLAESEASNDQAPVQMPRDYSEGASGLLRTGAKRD

The target of experiment [2] is T2, Escherichia coli YhcB (E. coli) (UniProt P0ADW3).
T2 sequence: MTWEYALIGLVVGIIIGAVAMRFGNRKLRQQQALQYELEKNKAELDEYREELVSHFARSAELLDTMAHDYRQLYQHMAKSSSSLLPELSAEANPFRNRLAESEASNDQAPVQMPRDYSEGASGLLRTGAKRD

The target of experiment [3] is T2, Escherichia coli YhcB (E. coli). This is another data set of the same source.
In experiment [4] the target is T1, YhcB-v7 (cytoplasmic domain only, lacking the TM region) (E. coli). This is another data set of the same source.

Consider “RodZ (E. coli) (from UniProt P27434 1-337)”, for which the binding entry in experiment [1] is “no binding”. For the molecule “FtsQ (E. coli) (from UniProt P06136 1-276)”, in experiment [2], the binding entry is reported as “binds”.

For the molecule “ZapE (Vibrio cholerae) (from UniProt Q9KUF3 1-367)”, the binding result in experiment [2] was “binds”.

B1: Escherichia coli YhcB (protein, UniProt P0ADW3 1-132)
chain: MTWEYALIGLVVGIIIGAVAMRFGNRKLRQQQALQYELEKNKAELDEYREELVSHFARSAELLDTMAHDYRQLYQHMAKSSSSLLPELSAEANPFRNRLAESEASNDQAPVQMPRDYSEGASGLLRTGAKRD
As for B1, the binding entry in experiment [3] is “no binding”.

B2: YidC (E. coli) (protein, UniProt P25714 1-548)
chain: MDSQRNLLVIALLFVSFMIWQAWEQDKNPQPQAQQTTQTTTTAAGSAADQGVPASGQGKLISVKTDVLDLTINTRGGDVEQALLPAYPKELNSTQPFQLLETSPQFIYQAQSGLTGRDGPDNPANGPRPLYNVEKDAYVLAEGQNELQVPMTYTDAAGNTFTKTFVLKRGDYAVNVNYNVQNAGEKPLEISSFGQLKQSITLPPHLDTGSSNFALHTFRGAAYSTPDEKYEKYKFDTIADNENLNISSKGGWVAMLQQYFATAWIPHNDGTNNFYTANLGNGIAAIGYKSQPVLVQPGQTGAMNSTLWVGPEIQDKMAAVAPHLDLTVDYGWLWFISQPLFKLLKWIHSFVGNWGFSIIIITFIVRGIMYPLTKAQYTSMAKMRMLQPKIQAMRERLGDDKQRISQEMMALYKAEKVNPLGGCFPLLIQMPIFLALYYMLMGSVELRQAPFALWIHDLSAQDPYYILPILMGVTMFFIQKMSPTTVTDPMQQKIMTFMPVIFTVFFLWFPSGLVLYYIVSNLVTIIQQQLIYRGLEKRGLHSREKKKS
On to B2, for which the binding result in experiment [4] is reported as “no binding”; in experiment [3] it was “binds”.

B3: FtsI (E. coli) (protein, UniProt P0AD68 1-588)
chain: MKAAAKTQKPKRQEEHANFISWRFALLCGCILLALAFLLGRVAWLQVISPDMLVKEGDMRSLRVQQVSTSRGMITDRSGRPLAVSVPVKAIWADPKEVHDAGGISVGDRWKALANALNIPLDQLSARINANPKGRFIYLARQVNPDMADYIKKLKLPGIHLREESRRYYPSGEVTAHLIGFTNVDSQGIEGVEKSFDKWLTGQPGERIVRKDRYGRVIEDISSTDSQAAHNLALSIDERLQALVYRELNNAVAFNKAESGSAVLVDVNTGEVLAMANSPSYNPNNLSGTPKEAMRNRTITDVFEPGSTVKPMVVMTALQRGVVRENSVLNTIPYRINGHEIKDVARYSELTLTGVLQKSSNVGVSKLALAMPSSALVDTYSRFGLGKATNLGLVGERSGLYPQKQRWSDIERATFSFGYGLMVTPLQLARVYATIGSYGIYRPLSITKVDPPVPGERVFPESIVRTVVHMMESVALPGGGGVKAAIKGYRIAIKTGTAKKVGPDGRYINKYIAYTAGVAPASQPRFALVVVINDPQAGKYYGGAVSAPVFGAIMGGVLRTMNIEPDALTTGDKNEFVINQGEGTGGRS
As for B3, the binding entry in experiment [4] was “no binding”; in experiment [3], “binds”.

B4: YciS (E. coli) (protein, UniProt P0ACV4 1-102)
chain: MKYLLIFLLVLAIFVISVTLGAQNDQQVTFNYLLAQGEYRISTLLAVLFAAGFAIGWLICGLFWLRVRVSLARAERKIKRLENQLSPATDVAVVPHSSAAKE
In the case of B4, in experiment [4], the binding result was “no binding”.

B5: RodA (E. coli) (protein, UniProt P0ABG7 1-370)
chain: MTDNPNKKTFWDKVHLDPTMLLILLALLVYSALVIWSASGQDIGMMERKIGQIAMGLVIMVVMAQIPPRVYEGWAPYLYIICIILLVAVDAFGAISKGAQRWLDLGIVRFQPSEIAKIAVPLMVARFINRDVCPPSLKNTGIALVLIFMPTLLVAAQPDLGTSILVALSGLFVLFLSGLSWRLIGVAVVLVAAFIPILWFFLMHDYQRQRVMMLLDPESDPLGAGYHIIQSKIAIGSGGLRGKGWLHGTQSQLEFLPERHTDFIFAVLAEELGLVGILILLALYILLIMRGLWIAARAQTTFGRVMAGGLMLILFVYVFVNIGMVSGILPVVGVPLPLVSYGGSALIVLMAGFGIVMSIHTHRKMLSKSV
As to B5, the binding entry in experiment [3] is “binds”.
